Results from PubChem BioAssay AID894 (National Center for Advancing Translational Sciences (NCATS), 2007).
Screen size: about 150,000 compounds; about 6,500 (4.3%) were called active. Inconclusive means that the source gave no clear call. Such entries were picked first, then a sample of the others. Calls follow the shape of the dose curve; as a rule, active = well fitted inhibition curve with a large enough effect (not every such curve was filed as active); inconclusive = small, poorly fitted or top-dose-only effect, or another doubt; inactive = no such curve, though single readings can be large or run the other way. Where the call is inconclusive, the potency comes from a doubtful curve fit.

molecular target: 15-hydroxyprostaglandin dehydrogenase [NAD(+)] (Homo sapiens) (UniProt P15428); assay: qHTS Assay for Inhibitors of HPGD (15-Hydroxyprostaglandin Dehydrogenase); settings: purified HPGD, NADH fluorescence kinetic, PGE2 substrate; activity change, negative = inhibition: stronger effect = lower value
Procedure, shortened: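 20 nM HPGD preincubated 15 min at room temperature with compound in 50 mM Tris-HCl pH 8, 0.01% Tween 20. Started with 1 mM NAD+ and 30 uM prostaglandin E2; NADH fluorescence (360/450 nm) read 5 times over 30-s intervals, last minus first.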
% is scaled to controls: 0 for no effect and ±100 for the full control effect; potency is read from the fitted curve at half-maximal effect; tags tell the direction and shape of the fitted curve.

Sequence of UniProt P15428 (P15428 whole entry, looked up): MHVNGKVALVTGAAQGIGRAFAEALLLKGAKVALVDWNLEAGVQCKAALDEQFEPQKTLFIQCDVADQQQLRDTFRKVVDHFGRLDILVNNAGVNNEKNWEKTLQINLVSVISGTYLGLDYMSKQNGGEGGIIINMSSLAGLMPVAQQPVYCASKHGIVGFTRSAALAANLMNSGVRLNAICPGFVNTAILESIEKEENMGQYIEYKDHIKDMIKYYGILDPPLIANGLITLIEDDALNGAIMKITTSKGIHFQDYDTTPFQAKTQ

Potency, inconclusive:
Cc1cc(C(=O)COC(=O)c2cc(Cl)ccc2N)c(C)n1Cc1ccco1 28.2 µM [inhibitor, partial curve]
COc1ccc(-c2cc(-c3ccc(C)cc3)nc(SCc3nnc(-c4ccccc4)o3)c2C#N)cc1OC 6.31 µM [inhibitor, full curve]
CC1CC(C)CN(S(=O)(=O)c2ccc(C(=O)Nc3sccc3C(N)=O)cc2)C1 (stereo not given) 39.8 µM [inhibitor, single point]
CCOC(=O)N1CCC(NC(=O)c2ccc3c(c2)N(Cc2ccc(C)cc2)CCS3)CC1 28.2 µM [inhibitor, partial curve]
COc1ccc(OC)c(-c2cc(C(=O)Nc3c(C)nn(Cc4ccccc4)c3C)no2)c1 25.1 µM [inhibitor, partial curve]
COCCNC(=O)c1cc2sc3ccccc3c2s1 17.8 µM [inhibitor, partial curve]
O=C(c1ccco1)N1C(=O)c2cccc3cccc1c23 28.2 µM [inhibitor, single point]
CCCn1c(=N)c(C(=O)NC2CCCC2)cc2c(=O)n3cccc(C)c3nc21 31.6 µM [inhibitor, partial curve]
O=C(c1ccccc1Cl)N1CCN(c2ccccn2)CC1 6.31 µM [inhibitor, single point]
CC1=C(C)CC(C(=O)Nc2cccc(Cl)c2)C(C(=O)O)C1 (stereo not given) 31.6 µM [inhibitor, single point]
CC(=C/c1ccc(C(C)C)cc1)/C=N/NC(=O)c1ccncc1 35.5 µM [inhibitor, partial curve]
O=c1c2ccccc2nc2c3ccccc3ncn12 25.1 µM [inhibitor, partial curve]
COc1cc2[nH]c3c(N4CCN(c5ccc(Cl)cc5)CC4)ncnc3c2cc1OC 28.2 µM [inhibitor, partial curve]
CS(=O)(=O)Nc1ccccc1C(=O)Nc1ccccc1Cl 31.6 µM [inhibitor, single point]
CCN(CC)CCCNC(=O)c1cn(CCOC)c(=O)c2c1c1ccccc1n2C 31.6 µM [inhibitor, partial curve]
COCCNc1nc(C)nc2c1nc(-c1ccccc1)n2CCN(C)C 28.2 µM [inhibitor, partial curve]
COC(CNC(=O)c1cc(Sc2nnc(C)s2)nc2ccccc12)OC 2.82 µM [inhibitor, full curve]
CN(C)c1ncc2nc(CCc3ccccc3)c(=O)n(C[C@H]3CCCO3)c2n1 25.1 µM [inhibitor, partial curve]
CC(C)CC(C(=O)NC1CCCC1)N(Cc1cccs1)C(=O)c1snc(C(N)=O)c1N (stereo not given) 25.1 µM [inhibitor, partial curve]
CNc1nnc(-c2ccc(N(C)C)cc2)s1 31.6 µM [inhibitor, partial curve]
COC(=O)CSc1nc(C)c(C(=O)Nc2ccccc2C)c(-c2ccc(Cl)cc2)c1C#N 39.8 µM [inhibitor, single point]
O=C(O)CCc1nn2c3ccccc3n(CCN3CCCCC3)c2nc1=O 35.5 µM [inhibitor, partial curve]
CCn1c(=O)cc(SCC(=O)NCc2ccco2)c2ccccc21 14.1 µM [inhibitor, partial curve]
CC(=O)c1cc2c(cc1NC(=O)CN1CCCCC1C)OCO2 (stereo not given) 39.8 µM [inhibitor, single point]
Cc1ccc(C2NC(=O)c3c(sc4c3CCN(C)C4)N2)o1 (stereo not given) 35.5 µM [inhibitor, partial curve]
CCCn1c(=O)c(C(=O)Nc2ccccc2C(=O)OCC)c(O)c2ccccc21 31.6 µM [inhibitor, partial curve]
Cc1cccc(-n2c(SCC(N)=O)nc3c(c2=O)C2(CCCCC2)Cc2ccccc2-3)c1 31.6 µM [inhibitor, single point]

Potency, active:
Cc1cc(Cl)ccc1OCC(=O)N1CCCCC1 28.2 µM
Cc1noc(C)c1S(=O)(=O)Nc1ccc(C(=O)N2CCCCC2)cc1 31.6 µM
Cc1cccc(/C(N)=N/OC(=O)c2ccc(Cl)cc2Cl)c1 15.8 µM
Clc1ccc(Cn2ncc3c(NCc4ccco4)ncnc32)c(Cl)c1 28.2 µM
O=C(/C=C/c1ccccc1)n1cnnc1SC/C=C/c1ccccc1 14.1 µM
Cc1csc(SCC(=O)NC23CC4CC(CC(C4)C2)C3)n1 28.2 µM
Cc1ccc2[nH]c3c(c2c1)CN(C(=O)CN1CCCc2ccccc21)CC3 22.4 µM

Activity change, negative = inhibition, inactive:
CCOC(=O)C1=C(C)C(c2ccc(OC)cc2)NC(=S)N1 (stereo not given) -8.86%
CC(=O)NCC(=O)N[C@H](CCC(=O)O)C(=O)O -7.97%
C[C@@H](O)[C@H]1C(=O)N2C(C(=O)O)=C(S[C@@H]3CN[C@H](C(=O)N(C)C)C3)[C@H](C)[C@H]12 -8.96%
CC(=O)NCCNc1nc(-c2ccc(N(C)C)cc2)nc2ccccc12 -26.9%
O=C1SC(c2ccccc2)=C/C1=C\N1CCCCC1 -32.3%
OCCN(Cc1ccccc1)Cc1ccc(Cl)cc1Cl -4.31%
COc1cc(S(=O)(=O)N2CCN(c3ccccc3F)CC2)c(OC)cc1Cl -2.09%
COc1cc(C(=O)Nc2ccccc2C2COC(=O)C2=N)cc(OC)c1OC (stereo not given) -4.46%
Cc1ccc(S(=O)(=O)Oc2ccc(/C=N/NC(=O)c3nn(C)cc3Cl)cc2)cc1 -27.5%
CCCCCCN1C=C/C(=C\C=C(C#N)C#N)c2ccccc21 -3.18%
Cc1cc(C(=O)c2ccc(C(C)(C)C)cc2)c(NC(=O)CCl)s1 3.58%
